The labels stand for the following.
B1: ENSG00000198589:be:win_3651|CDS|ENSG00000198589|bound_else_gene|NA|bound_elsewhere_windowed (ssRNA)
RNA: GGGAGUUCUACAGUCCGACGAUCCCUCACUAGAGAAACCAAAUUAAUUAAUGAUUGUCAUGGUAGUGUCUCUGAGGCUUCUUCUGAGCAAAAGAUUGCGAAGUUGGAUGUUUCCAAUGUUGCUACAGAUACUGAGAGGCUGGACAACAGAGGAUUGAGCAUCA
B2: chr22:20142972:20143073:+|CDS|ENSG00000099904|msi1|total|mutant (ssRNA)
RNA: GGGAGUUCUACAGUCCGACGAUCGGGGAUCAUGUGGCCCUGCAGCCCCUGCGCUCUGAGGGGGGGCCCCCCACGCCCCACCGCCGCAUUUUUGCCCCCCAUGCACUGCCCAACCGCAACGGCAGCCUGUCCUAUGACAGCCUGCAACAGAGGAUUGAGCAUCA
B3: chrX:85271413:85271529:+|CDS|ENSG00000147180|unk|FALSE|unique (ssRNA)
RNA: GGGAGUUCUACAGUCCGACGAUCUGUGAUAAAGGUUUUCAUCGUCCUUCUGAGCUCAAAAAGCAUAGUGAUAUCCAUAAGGGUAGGAAGAUUCAUCAGUGCAGGCACUGUGACUUUAAAACAUCCGAUCCAUUUAUUCUUAGUCAACAGAGGAUUGAGCAUCA
B4: ENSG00000106799:stop:overlap|stop_codon|ENSG00000106799|stop_codon|NA|stop_codon (ssRNA)
RNA: GGGAGUUCUACAGUCCGACGAUCGCAAGCUGCUUGAGAGCAGCCUUGUAUUCCCAGCAUCCAUCACAGUGCCUAAUACAUGGUAGAUCCUCAGUAGAUAUUUGUUGAGUCCAUGAGUCUUCAAAAGAACUUAAUUAGGUACAUCAACAGAGGAUUGAGCAUCA
B5: chr22:40825413:40825514:-|3pUTR|ENSG00000100380|msi1|FALSE|bound_elsewhere (ssRNA)
RNA: GGGAGUUCUACAGUCCGACGAUCGGUAAUACCCACAACAACUGUAGUUUCUUACUUGGCCAAGAGAAUGCUUAUUUAAGUGUUAGACUUCCAUUCUGGCAAAAUCUUGCCUUAUCAGAAGACAUUGGAAAGAGGGAUUCCCUUCAACAGAGGAUUGAGCAUCA
B6: chr7:138594284:138594621:-|three_prime_utr|ENSG00000157703|control|control|control (ssRNA)
RNA: GGGAGUUCUACAGUCCGACGAUCUCAGAACUGCGGUGCAUUUUUUUAAAACUUGGUUUUACUUCUGUAUGCUACUCGGUAAUUAGUAAAGUGAUUUUUUUUUUAAAGGCAUAUAUGGGAAUGGGGUAGGUAACUGUAUAUUGACAACAGAGGAUUGAGCAUCA
B7: chr8:43200960:43201061:+|3pUTR|ENSG00000165102|unk|FALSE|unique (ssRNA)
RNA: GGGAGUUCUACAGUCCGACGAUCCAAAUUCUAAGUGUUUUCUCUUUAGGUUUCCCUGGCUUUGUGAAUGGAUCAUGUGUCUCUAGGUAUAAACCUGACAUCAUCUUUCCACCCGGCUUACCUCCACCAGAUCUCCCCAGUUCUCAACAGAGGAUUGAGCAUCA
B8: chr7:93208579:93208876:-|CDS|ENSG00000188175|control|control|control (ssRNA)
RNA: GGGAGUUCUACAGUCCGACGAUCUGACAAUACUACAUAUAUCAUUAAGCAUGGGCCUCGCUUAGAAGUUGCAUCUGAGAAAGUAGCCCAGAAGACAAUGGACUAUGUGUGCUGUGCUUACAACAACAUAACCGGCAGGCAAGACAACAGAGGAUUGAGCAUCA
B9: chr15:89477516:89477653:-|CDS|ENSG00000140519|control|control|control (ssRNA)
RNA: GGGAGUUCUACAGUCCGACGAUCCCGGCUGCACAUCCAGGACACAUGUGGCAUUAACAAUCUGCAUGGCAUUCCUGGCAUCAUAGGCGGCAUCGUGGGUGCUGUGACAGCGGCCUCCGCCAGCCUUGAAGUCUAUGGAAAAGACAACAGAGGAUUGAGCAUCA
B10: chr17:79086671:79086772:+|3pUTR|ENSG00000167280|msi1|total|mutant (ssRNA)
RNA: GGGAGUUCUACAGUCCGACGAUCACCGGCUGCAAGAUGCUGAUGCCGAGAAUGAUGAUUUUCUUUCCUGCAGAUGAAACUAUCCGAAAGGGUCUCCGAUUGUGGCAGGCCGGCUUUGGAGCAGGCGCCGAGACAUUUCUGAGCCAACAGAGGAUUGAGCAUCA
B11: chr10:89213657:89213758:-|3pUTR|ENSG00000107798|msi1|FALSE|unique (ssRNA)
RNA: GGGAGUUCUACAGUCCGACGAUCUUACAAUACUGUCCGGUGGACAAAAUGACAAUUGAUAUGUUUUUCUGAUAUAAUUACUUUAGCUGCACUAACAGUACAAUGCUUGUUAAUGGUUAAUAUAGGCAGGGCGAAUACUACUUUCAACAGAGGAUUGAGCAUCA
B12: chr5:40945159:40945374:+|CDS|ENSG00000112936|unk|total|mutant (ssRNA)
RNA: GGGAGUUCUACAGUCCGACGAUCGAAUUUUACAACCGUACUUGGUCUUAUGUAAAACAUACGUCGACAGAACACACAUCAUCCCGUCGGAAGCGCUCCUUUUUCCGAUCUUCAUCAUCUUCUUCACGCAGUUAUACUUCACAUCAACAGAGGAUUGAGCAUCA
B13: ENSG00000159164:stop:overlap|stop_codon|ENSG00000159164|stop_codon|NA|stop_codon (ssRNA)
RNA: GGGAGUUCUACAGUCCGACGAUCUUGCAUCCUGGAAUGCGCUGGACGUGUUGACUGUUGAACUCUACCCCUCAGACAAGAGGUAGUUGGAAUGUGUUGGAGGCAGGGCAGUGGAUUCAGGGGAGGGGUGGGGUGAGGAAGGAGCAACAGAGGAUUGAGCAUCA
B14: chr8:58582127:58582250:+|3pUTR|ENSG00000137575|unk|total|mutant (ssRNA)
RNA: GGGAGUUCUACAGUCCGACGAUCUUCAUAUUACUUCCGUUCUACCGCAUACUUGCAUCUUUAACAUGCUAUCACCGUACAUUCCGAAUGAUUGCCUUUGAUUUUUUUUUUAAAUUCUGUGUGUGUGUGUGUAAAAUGCCAAUUCAACAGAGGAUUGAGCAUCA
B15: chr16:66721972:66722075:-|3pUTR|ENSG00000135720|unk|FALSE|unique (ssRNA)
RNA: GGGAGUUCUACAGUCCGACGAUCUUUUUAAUUCAGUUUUUUAAAAAAACAAAUGUAUUGUGGCUUCCAGUUACCAGGUUGUCUAGGUAAUGACAGUAAACUGACUGUAGAAUGAUAAUUGUGGUAUAGUGACCAAUAGAUGCCCAACAGAGGAUUGAGCAUCA
B16: chr4:138171744:138171845:-|3pUTR|ENSG00000151012|msi1|FALSE|unique (ssRNA)
RNA: GGGAGUUCUACAGUCCGACGAUCAGGAGUCAGUUAUUUUUAUUCAUAUAUUUUAGCAUAUUCGAACUAAUUUCUAAGAAAUUUAGUUAUAACUCUAUGUAGUUAUAGAAAGUGAAUAUGCAGUUAUUCUAUGAGUCGCACAAUCAACAGAGGAUUGAGCAUCA
B17: chr15:44665791:44665971:-|CDS|ENSG00000229474|control|control|control (ssRNA)
RNA: GGGAGUUCUACAGUCCGACGAUCGAUCUGUUUGUUCUGGAAUACGUGUAUGUGGGAAGUUGAAUCAUCAGACACUAGCUACAUAGACUAUGUUUACAGGGAUCCAGAGAGUCUGAAGACAUUUCUUAUGCCUUUAUAUAUUGGCAACAGAGGAUUGAGCAUCA
B18: chr9:37357341:37357442:+|3pUTR|ENSG00000147905|unk|total|mutant (ssRNA)
RNA: GGGAGUUCUACAGUCCGACGAUCAUUAUCUAUGAUUAAAUAAAGUGAGUUUUUGGUUUUGUUUUUUUAAUUUCAGCCAUUCCCCGAGUUACUGAAUAUCCAUGGAGAUCUCAAUUCUCUGUGUCCAACAGGAUAUCCGGUAAGCAACAGAGGAUUGAGCAUCA
B19: chr7:73736928:73737391:-|CDS|ENSG00000106077|control|control|control (ssRNA)
RNA: GGGAGUUCUACAGUCCGACGAUCGGUAGAGGUAGACGGGCGCUUCGUGUGGAGGGUGAACUUGGAUGCCCUGACCCAGCACCUAGACAAGAUCUUGGCUUUCCCACAGAGGCAGGAGUCCUACCUCGGGCCAACACUCUUUCUCAACAGAGGAUUGAGCAUCA
B20: chr12:39619279:39619382:-|CDS|ENSG00000173208|unk|total|mutant (ssRNA)
RNA: GGGAGUUCUACAGUCCGACGAUCCGAGACCAUUUGUGAAAAACCUUCGCCUGGAGUGAAUGCAGAUUUCUUCAAACAGCUACCCGAACUUCGGAAAAUUUUGUUUCCAAAACUUGUGACCACUGAAACAGGGUGGCUCUGCCUCAACAGAGGAUUGAGCAUCA
B21: chr2:206755008:206755505:-|CDS|ENSG00000138400|control|control|control (ssRNA)
RNA: GGGAGUUCUACAGUCCGACGAUCCACUCUGGAGGACUGCCUCCGAAGCAGGGUGCCUCUCUGCAGGCUCUAUGGGUACCUGAUAGAGAAAAAUGCUCAUGAGUCUGUCAGAGUCAUCGUGGGAGGGAGAACCUUUGUAAACCUCAACAGAGGAUUGAGCAUCA
B22: chr15:90501451:90501552:+|3pUTR|ENSG00000140575|msi1_unk|total|mutant (ssRNA)
RNA: GGGAGUUCUACAGUCCGACGAUCCUGAGCCUCUAUUUUCUUUCUUUGAUGUUUUGAUUCAGUAUUCUUUUAUCAUAAAUUUUCCGCAUUUAAAAAUUCACUGAUGUACAUUAAGCCAAUAAACUGCUUUAAUGAAUAACAAACCAACAGAGGAUUGAGCAUCA

This is one part of the list.

The target in this assay is MSI1 full-length (mouse, UniProt Q61474 1-362). Nature of the assay: nsRBNS (natural sequence RNA bind-n-seq); RBNS binding buffer (assumed for nsRBNS): 25 mM Tris pH 7.5, 150 mM KCl, 3 mM MgCl2, 0.01% Triton X-100, 500 ug/ml BSA, 20 U/ml SUPERase-In, 4 C; UNK is unkempt and MSI1 is Musashi-1; names of the RNAs are library labels; protein concentration not given here; high values mean tight binding.
UniProt Q61474, sequence (Q61474 whole entry): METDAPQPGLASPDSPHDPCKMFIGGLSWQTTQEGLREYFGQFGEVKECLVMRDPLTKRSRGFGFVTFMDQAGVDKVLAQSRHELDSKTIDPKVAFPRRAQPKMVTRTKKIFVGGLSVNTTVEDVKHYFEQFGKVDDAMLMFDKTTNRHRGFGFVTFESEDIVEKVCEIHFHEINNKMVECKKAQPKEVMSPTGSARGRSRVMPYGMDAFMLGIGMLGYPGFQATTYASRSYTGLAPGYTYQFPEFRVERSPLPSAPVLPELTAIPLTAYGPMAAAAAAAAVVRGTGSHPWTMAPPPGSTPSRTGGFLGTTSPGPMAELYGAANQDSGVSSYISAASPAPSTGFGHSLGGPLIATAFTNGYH
Molecule B1 had a binding signal of 0.605 enrichment R.

B2 showed a binding signal of 0.459 enrichment R. Take B3: the binding signal is 2.92 enrichment R.

In the case of B4, the binding signal turned out to be 0.606 enrichment R.

B5 displayed a binding signal of 0.377 enrichment R.

For the molecule B6, the binding signal is 3.22 enrichment R. Consider B7, for which the binding signal was 0.438 enrichment R. Molecule B8 showed a binding signal of 1.23 enrichment R.

Take B9: the binding signal was found to be 0.264 enrichment R. B10 gave a binding signal of 0.303 enrichment R.

The molecule B11 returned a binding signal of 1.3 enrichment R. B12 showed a binding signal of 0.516 enrichment R. As to B13, the binding signal is 1.98 enrichment R. Molecule B14 returned a binding signal of 0.478 enrichment R. As to B15, the binding signal came out at 9.43 enrichment R. Molecule B16 had a binding signal of 2.19 enrichment R. As to B17, the binding signal is 0.282 enrichment R.

Turning to B18, the binding signal was found to be 0.726 enrichment R. The result for B19 reads 0.528 enrichment R; that for B20, 0.252 enrichment R; that for B21, 0.692 enrichment R. The result for B22 reads 0.698 enrichment R.

Values taken from article PMC12136788.
